Reference: PubChem BioAssay AID686978 (National Center for Advancing Translational Sciences (NCATS), 2013)
Values joined by “and” are separate entries in the source; they are usually repeats but may differ in a detail not shown here. Equal entries are not always repeated. In all, about 420,000 compounds went through this assay and about 64,000 (15%) were called active. The inconclusive results got no clear call from the source; some entries with a clear call stand among them for comparison. Calls follow the shape of the dose curve; as a rule, active = well fitted inhibition curve with a large enough effect; inconclusive = small, poorly fitted or top-dose-only effect; inactive = flat fitted curve, though single readings scatter. Potencies beside an inconclusive call are fits to weak or partial responses and may not hold up.

test: qHTS for Inhibitors of human tyrosyl-DNA phosphodiesterase 1 (TDP1): qHTS in cells in absence of CPT; details: DT40 Tdp1-/- hTDP1 cells, no CPT, ATP luminescence, 48 h; activity change, negative = growth inhibition: at 46.2 µM (top of the series) unless noted; also: nearly all actives have a fitted effect of over 55% in size
In short: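 Chicken DT40 Tdp1-/- cells complemented with human TDP1, screened without camptothecin (DMSO vehicle only), 400 cells/well. Compounds pin-transferred, cells incubated at 37 °C for at least 48 hr. Growth read as ATP-dependent luminescence (CellTiter-Glo, 30 min at RT).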
% is scaled to controls: 0 for no effect and ±100 for the full control effect; potency is read from the fitted curve at half-maximal effect; tags tell the direction and shape of the fitted curve.

Row | SMILES | Potency | activity change, negative = growth inhibition
1 | CCc1ccc(Cn2c(CNS(=O)(=O)c3ccc([N+](=O)[O-])cc3)nc3cccnc32)cc1 | inconclusive: 9.2 µM [inhibitor, partial curve, poor fit] | –
2 | O=S(=O)(Nc1cccc(-c2ccc3nncn3n2)c1)c1ccc(Cl)s1 | – | inactive: -21.3%
3 | COCCNC(=O)c1ccc(-n2c(-c3ccccc3)cc3c2CCC(C)C3)cc1 (stereo not given) | inconclusive: 20.6 µM [inhibitor, single point] | –
4 | Cc1ccc(C(=O)NCc2ccc3c(c2)CCN3C(=O)c2ccc(C)cc2)cc1 | active: 18.4 µM | –
5 | CCOC(=O)c1[nH]nc(-c2cc(CC)c(O)cc2O)c1-c1cscn1 | inconclusive: 14.6 µM [inhibitor, partial curve] | –
6 | CCCc1sc(N/N=C/c2ccccn2)nc1-c1ccc(F)cc1 | active: 4.61 µM | –
7 | CCn1nc(C)c(CCN(C)C(=O)Nc2ccc(C)c(Cl)c2)c1C | inconclusive: 20.6 µM [inhibitor, single point] | –
8 | CCCN1CCN(CCCNC(=O)c2cc3c(=O)[nH]c4ccc(C)cc4c3s2)CC1 | active: 16.4 µM | –
9 | COc1cccc2c1OCC(CN1CCN(Cc3ccccc3)C(CCO)C1)=C2 (stereo not given) | inconclusive: 20.6 µM [inhibitor, single point] | –
10 | COc1ccc(C(=O)N2CCC(C(=O)c3ccc(F)cc3)CC2)cc1 | inconclusive: 6.51 µM [inhibitor, full curve] | –
11 | C=CCNC(=S)Nc1ccc2cn[nH]c2c1 | – | inactive: -14.3%
12 | O=C(NC(=S)Nc1ccc(CN2CCOCC2)cc1)c1ccc(-c2ccc(Cl)cc2)o1 | inconclusive: 4.61 µM [inhibitor, full curve] | –
13 | CC1(C)C(=O)N(c2ccccc2)C(=O)c2ccccc21 | – | inconclusive: -33.3% [inhibitor]
14 | CCc1c(C)nc2ncnn2c1Nc1ccccc1C | inconclusive: 16.4 µM [inhibitor, single point] | –
15 | Cc1nc(-c2nnc(SCC(=O)Nc3ccc(C(F)(F)F)cc3)n2C)cs1 | inconclusive: 18.4 µM [inhibitor, single point] | –
16 | CCCCCCCCN1C(=O)[C@H](CC(=O)NCCCN2CCCC2=O)C[C@@]2(C(=O)OCC)CCCC=C12 | inconclusive: 29.1 µM [inhibitor, single point] | –
17 | OC[C@@H]1CN(Cc2ccc(Cl)cc2)C[C@H](n2cnc3c(NCc4ccco4)ncnc32)O1 | – | inactive: -27%
18 | COc1ccc2[nH]c(C)c(C(=O)CN(C)CC3OCCO3)c2c1 | inconclusive: 20.6 µM [inhibitor, single point] | –
19 | Cc1ccnc(NC(=O)CCNC(=O)c2ccc(Br)cc2)c1 | – | inactive: -0.0706%
20 | Cc1cc(Nc2cccc(Cl)c2)nc2ccc(NC(=O)Cc3ccc(Cl)cc3)cc12 | inconclusive: 20.6 µM [inhibitor, single point] | –
21 | CCOC(=O)CSC1=C(C#N)C(c2ccc(F)cc2)C(C(C)=O)=C(C)N1 (stereo not given) | inconclusive: 18.4 µM [inhibitor, single point] | –
22 | COC(=O)c1ccccc1N=NNc1ccc([N+](=O)[O-])cc1 | inconclusive: 18.4 µM [inhibitor, single point] | –

Row | SMILES | Potency | activity change, negative = growth inhibition
23 | COc1nc(NCc2ccco2)nc(NC2CCCCC2)n1 | inconclusive: 29.1 µM [inhibitor, single point] | –
24 | COc1ccc(NC2CCCN(C(=O)c3cccc(C(F)(F)F)c3)C2)cc1OC (stereo not given) | inconclusive: 6.51 µM [inhibitor, full curve, poor fit] | –
25 | c1coc(CNc2nc3ccccc3s2)c1 | – | inactive: 2.03%
26 | CCNC(=S)N(CCCN(C)C)Cc1cc2cc3c(cc2[nH]c1=O)OCCO3 | – | inactive: 1.23%
27 | CC(C)(C)CC(=O)N1CCC(c2nc3c(nnn3Cc3c(F)cccc3Cl)c(=O)[nH]2)CC1 | inconclusive: 29.1 µM [inhibitor, single point] | –
28 | CC(C)(O)C#Cc1ccc(C(=O)N2CCN(c3ccc([N+](=O)[O-])cc3)CC2)cc1 | inconclusive: 18.4 µM [inhibitor, single point] | –
29 | O=C(COC(=O)c1ccccc1OCC(=O)Nc1ccc(Br)cc1)Nc1ccccc1 | inconclusive: 20 µM [inhibitor, single point] and inconclusive: 8.2 µM [inhibitor, partial curve] | –
30 | COc1ccc(NC(=O)c2sc3nc4c(cc3c2N)CCCCCC4)c(OC)c1 | inconclusive: 29.1 µM [inhibitor, single point] | –
31 | CCOc1ccccc1NC(=O)Cn1c(=O)n(Cc2ccccc2)c(=O)c2c1c1cc(C)ccc1n2C | – | inactive: 0.0214%
32 | COc1ccc(CCNC(=O)c2ccc3c(c2)CCN3S(=O)(=O)c2ccccc2)cc1OC | inconclusive: 25.9 µM [inhibitor, single point] | –
33 | O=c1cnnc(Nc2ccc(Nc3ccccc3)cc2)[nH]1 | inconclusive: 18.4 µM [inhibitor, partial curve] | –
34 | CCOC(=O)COc1ccc(/C=C/[N+](=O)[O-])c(OCC(=O)OCC)c1 | active: 20.6 µM | –
35 | CCC(C)(C)C1CCc2nc3ccccc3c(C(=O)OC(C)C(=O)Nc3c(C)n(C)n(-c4ccccc4)c3=O)c2C1 (stereo not given) | inconclusive: 29.1 µM [inhibitor, single point] | –
36 | O=C(NC1CCCCC1)C1Cc2ccccc2CN1S(=O)(=O)c1ccc(F)cc1 (stereo not given) | inconclusive: 18.4 µM [inhibitor, single point] | –
37 | NS(=O)(=O)c1ccc(N2N=C(c3ccccc3)CC2c2ccccc2)cc1 (stereo not given) | inconclusive: 29.1 µM [inhibitor, single point] | –
38 | CC(C)Cn1c(N)c(C(=O)CSc2nnc(C3CC3)n2C2CC2)c(=O)n(C)c1=O | – | inactive: -29.1%
39 | COc1ccc(/C=N/NC(=O)c2nc(-c3ccccc3)n(-c3ccccc3)n2)cc1OC | inconclusive: 32.6 µM [inhibitor, partial curve, poor fit] | –
40 | CC(C)(C)C(=O)NNC(=O)c1ccc(Oc2cc(Cl)cc(Cl)c2)o1 | inconclusive: 29.1 µM [inhibitor, single point] | –
41 | CN(C)C(=O)c1cn(-c2ccccc2)nc1-c1cc2ccccc2o1 | – | inactive: -27.8%
42 | Cc1ccc(-n2ncc(C(=O)NCc3ccccc3)c2C2CCN(C(=O)OC(C)(C)C)CC2)cc1 | inconclusive: 20.6 µM [inhibitor, single point] | –
43 | CCCCOC(=O)c1ccc(NC(=S)N2CCN(c3ncc4c(=O)c(C(=O)O)cn(CC)c4n3)CC2)cc1 | inconclusive: 29.1 µM [inhibitor, single point] | –
44 | CCCc1nc2ccccc2c(=O)n1NC(=O)c1c(O)c2cccc3c2n(c1=O)CCC3 | active: 16.4 µM | –

Row | SMILES | Potency | activity change, negative = growth inhibition
45 | COCCn1c(SCc2cccc(F)c2)nc2cc(C(=O)OC)ccc2c1=O | inconclusive: 29.1 µM [inhibitor, single point] | –
46 | Cc1coc2c(C)c3oc(=O)c(CCC(=O)N[C@@H](C)C(=O)N[C@@H](Cc4ccccc4)C(=O)O)c(C)c3cc12 | – | inactive: -1.34%
47 | Cc1onc(-c2c(F)cccc2Cl)c1C(=O)N=C(N)N1CC(C)OC(C)C1 (stereo not given) | inconclusive: 29.1 µM [inhibitor, single point] | –
48 | Cc1csc(NC(=O)c2ccc(C)o2)n1 | – | inactive: -13%
49 | COc1ccc(-n2cc(CNC3CCOCC3)c(-c3cccc(F)c3)n2)cc1 | active: 20.6 µM | –
50 | CCOC(=O)C1CCN(C(=O)C2CCCN2S(=O)(=O)c2ccc(Cl)cc2)CC1 (stereo not given) | – | inactive: -21.4%
51 | CN1C2C=C3C(C#N)=C(N)C(C#N)(C#N)[C@@H](c4cccs4)C3C1CC2 (stereo not given in full) | inconclusive: 16.4 µM [inhibitor, single point] | –
52 | Cc1nc2ccc(N=NC3=C(O)CC(C)(C)CC3=O)cc2s1 | inconclusive: 0.731 µM [inhibitor, full curve, poor fit] | –
53 | Cc1cc(C)cc(N(CC(=O)N2CCc3ccccc32)S(=O)(=O)c2c(C)noc2C)c1 | inconclusive: 25.9 µM [inhibitor, single point] | –
54 | COc1ccccc1N(C)S(=O)(=O)c1ccc(C(=O)OCC(=O)NCc2ccco2)cc1 | inconclusive: 23.1 µM [inhibitor, single point] | –
55 | CN(Cc1ccccc1)C(=O)c1cccc(NC(=O)Cc2ccc(NC(=O)C3CCCN(C(=O)C4CC4)C3)cc2)c1 (stereo not given) | inconclusive: 23.1 µM [inhibitor, single point] | –
56 | COc1ccc(-c2ncncc2-c2ccc(Cl)cc2)c(O)c1 | inconclusive: 13 µM [inhibitor, single point] | –
57 | CCN(CC(=O)Nc1ccc(OC)c(OC)c1)S(=O)(=O)c1ccc(C)cc1 | inconclusive: 25.9 µM [inhibitor, single point] | –
58 | COc1ccc(-c2nnc(-c3ccc(C)cc3)o2)cc1 | – | inactive: -23.3%
59 | CCCc1nc2c3ccccc3ccn2c1Cc1cccc(F)c1 | inconclusive: 29.1 µM [inhibitor, single point] | –
60 | O=C(c1ccc(F)cc1F)C1CCN(c2ccc([N+](=O)[O-])cn2)CC1 | inconclusive: 0.58 µM [inhibitor, full curve, poor fit] | –
61 | CCCCOC(=O)c1ccc(OC(=O)c2sc3ncn(Cc4ccccc4Cl)c(=O)c3c2C)cc1 | – | inactive: -26.4%
62 | Cn1cnc([N+](=O)[O-])c1Sc1nc(N)nc2c1ncn2Cc1ccccc1 | inconclusive: 29.1 µM [inhibitor, single point] | –
63 | O=C(/C=C/c1ccc2c(c1)OCO2)NC1CCCC1 | – | inactive: -1.51%
64 | NC(=O)c1cc2ccccc2o/c1=N\NC(=O)c1ccco1 | inconclusive: 18.4 µM [inhibitor, single point] | –
65 | CC(C)(C)N(Cc1ccccc1)C(=O)COC(=O)c1ccccc1SCC(=O)N1CCCC1 | inconclusive: 23.1 µM [inhibitor, single point] | –
